Laboratory results published in PubChem BioAssay AID1476 (National Center for Advancing Translational Sciences (NCATS), 2009).
Several values for one entry are separate records, joined by “and”; a condition that tells them apart may be missing. Equal entries are not always repeated. Hit rate of the full screen: of about 200,000 compounds, about 4,500 (2.2%) were called active. Inconclusive means that the source gave no clear call. Such entries were picked first, then a sample of the others. The call rests on the fitted dose curve; in most records, active means well fitted inhibition curve with a large enough effect; inconclusive means small, poorly fitted or top-dose-only effect, or effect the other way; inactive means flat fitted curve, though single readings scatter. A potency beside an inconclusive call is a rough fit, not a confirmed value.

target: Cruzipain (Trypanosoma cruzi) (UniProt P25779); assay: qHTS Assay for Promiscuous and Specific Inhibitors of Cruzain (without detergent); conditions: purified cruzain, Z-FR-AMC fluorescence, no detergent; further: nearly all actives have a fitted effect of over 40% in size;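 on max response, negative = inhibition: plate controls were enzyme without inhibitor for no effect and buffer without enzyme for full effect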
Chain of UniProt P25779 (P25779 whole entry, looked up): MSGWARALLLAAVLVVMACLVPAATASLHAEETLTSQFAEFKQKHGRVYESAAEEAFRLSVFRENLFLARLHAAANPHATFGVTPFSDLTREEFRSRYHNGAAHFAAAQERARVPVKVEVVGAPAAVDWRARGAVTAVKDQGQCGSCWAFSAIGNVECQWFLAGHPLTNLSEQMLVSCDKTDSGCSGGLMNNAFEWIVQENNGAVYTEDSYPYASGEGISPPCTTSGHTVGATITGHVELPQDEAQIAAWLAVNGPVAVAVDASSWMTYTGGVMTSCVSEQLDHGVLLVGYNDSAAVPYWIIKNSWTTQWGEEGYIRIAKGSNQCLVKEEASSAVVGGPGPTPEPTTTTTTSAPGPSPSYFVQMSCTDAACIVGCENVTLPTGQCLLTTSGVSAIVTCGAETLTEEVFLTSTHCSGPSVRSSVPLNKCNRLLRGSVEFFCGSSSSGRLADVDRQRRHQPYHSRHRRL
Summary of the method: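 Detergent-free condition (0.00005% Triton X-100) in acetate buffer pH 5.5 with DTT. 1.5 nM enzyme and compound were pre-mixed 15 min, then 2 uM Z-FR-AMC substrate added; reaction progress from fluorescence change between first and third reads (60 s).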
Potency means the concentration at half of the fitted maximal effect; tags describe the fitted curve by direction and shape.

Row | Structure (SMILES) | max response, negative = inhibition | Potency
1 | COc1ccc(S(=O)(=O)n2nc(-c3ccco3)nc2NCc2ccc(N(C)C)cc2)cc1 | inactive: -14.3% | –
2 | O=C1C2CCCN2C(c2ccc(F)cc2)N1c1ccc(Cl)cc1 (stereo not given) | inactive: 2.02% | –
3 | CCN1CCN(Cc2nc3cc(NC(=O)c4cc(OC)c(OC)c(OC)c4)ccc3n2CC)CC1 | inactive: -12.2% | –
4 | CCOc1cc(CNC(=O)c2ccc(Cn3c(=O)c4cccn4c4cccnc43)cc2)ccc1OC | inactive: 10.8% | –
5 | Cc1ccc(NC(=O)CSc2nc3ccc(NC(=O)c4cccs4)cc3s2)cc1 | – | inconclusive: 6.31 µM [inhibitor, single point]
6 | Cc1noc(C)c1-c1nccc(N2CCOCC2)n1 | – | inconclusive: 6.31 µM [activator, partial curve]
7 | CCOc1cccc(C2c3[nH]c4ccccc4c3CCN2C(=O)c2ccccc2F)c1 (stereo not given) | – | inconclusive: 39.8 µM [inhibitor, single point]
8 | CCc1ccc(N2C(=O)NC(=O)/C(=C\c3cccn3CCOc3ccc(C(C)C)cc3)C2=O)cc1 | – | active: 10 µM
9 | CN(C)c1nc(OCCOC(=O)COc2ccc(Cl)cc2Cl)nc(N(C)C)n1 | – | inconclusive: 39.8 µM [activator, single point]
10 | CC(C)(C)c1ccc(C(=O)NC(=S)NNC(=O)c2cccs2)cc1 | – | inconclusive: 39.8 µM [inhibitor, single point]
11 | Cc1ccc([N+](=O)[O-])cc1S(=O)(=O)N1CCn2cccc2C1c1ccccc1F (stereo not given) | inactive: -16.8% | –
12 | O=C(NCc1cccn1Cc1ccccc1)Nc1cccc(C(F)(F)F)c1 | inactive: -6.78% | –
13 | CC(C)C(=O)N1CCC(CN=Cc2c(O)n(C3CCCCC3)c(=O)n(C3CCCCC3)c2=O)CC1 | – | inconclusive: 5.01 µM [activator, full curve]
14 | COCCNC(=O)c1c(-c2ccccc2)c(-c2ccccc2)nn(C)c1=O | inactive: 9% | –
15 | O=C(Nc1nc(-c2cccs2)cs1)c1ccc(Cl)cc1 | – | inconclusive: 31.6 µM [inhibitor, single point]
16 | O=C(CCn1cnc2ccccc2c1=O)Nc1nc(-c2ccc(Br)cc2)cs1 | – | active: 25.1 µM
17 | COc1cc(C(=O)NCCOc2cc(C)cc(C)c2)c(Br)c(OC)c1OC | – | inconclusive: 31.6 µM [activator, single point]
18 | C/C=C(/CC[C@@H](C)[C@H]1CCC2C3=CC[C@H]4[C@H](C)[C@@H](O)CC[C@]4(C)C3CC[C@@]21C)C(C)C (stereo not given in full) | inactive: 3.09% | –
19 | O=C(c1csnn1)N1CCC2(CC1)CCN(c1cccc(-c3ccccc3)c1)CC2 | – | inconclusive: 31.6 µM [activator, single point]
20 | COc1ccccc1N1CCN(C(=O)c2ccc(C(C)(C)C)cc2)CC1 | – | inconclusive: 25.1 µM [activator, single point]

Row | Structure (SMILES) | max response, negative = inhibition | Potency
21 | CCn1c(Cc2ccccc2)nnc1SCC(=O)NC(C)(C)C | – | inconclusive: 6.31 µM [activator, single point]
22 | COC(=O)c1c(NC(=O)CN(c2ccccc2)S(C)(=O)=O)sc2c1CCCC2 | – | inconclusive: 31.6 µM [activator, single point]
23 | Cc1ccc(/C=N\NC(=O)c2cc(OCC(F)(F)F)ccc2OCC(F)(F)F)cc1 | – | inconclusive: 39.8 µM [inhibitor, single point]
24 | CCc1ccc(NC(=O)COC(=O)c2ccc(Cl)c(S(=O)(=O)N3CCCCCC3)c2)cc1 | – | inconclusive: 39.8 µM [inhibitor, single point]
25 | O=C(Nc1ccccc1C(=O)OCc1cc(=O)n2ccsc2n1)c1ccc(Cl)cc1 | inactive: -0.711% | –
26 | CC(OC(=O)c1c2c(nc3ccccc13)/C(=C\c1ccc3c(c1)OCO3)CCC2)C(=O)Nc1ccc(S(N)(=O)=O)cc1 (stereo not given) | – | active: 15.8 µM
27 | CCOC(=O)N1CCN(C(=O)c2cc3c(-c4ccc(Cl)cc4)nn(C)c3s2)CC1 | – | inconclusive: 31.6 µM [activator, single point]
28 | Clc1ccc(Cl)c(Nc2ccnc(SCc3ccccc3)n2)c1 | inactive: -12% | –
29 | O=C(NCc1cccn1Cc1ccccc1)Nc1ccc(Br)cc1F | inactive: -2.27% | –
30 | Cc1ccc(NC(=O)c2ccccc2NS(=O)(=O)c2ccc(Cl)s2)cc1S(=O)(=O)N1CCOCC1 | – | inconclusive: 31.6 µM [inhibitor, single point]
31 | COc1cc(C2c3c(oc4ccc(C)cc4c3=O)C(=O)N2c2cc(C)ccn2)cc(OC)c1OC (stereo not given) | – | inconclusive: 39.8 µM [activator, single point]
32 | O=C(CN1C(=O)NC2(CCc3ccccc32)C1=O)Nc1cc(C(F)(F)F)ccc1N1CCOCC1 (stereo not given) | – | inconclusive: 31.6 µM [activator, single point]
33 | CCn1c(SCC(=O)Nc2cccc(F)c2)nnc1-c1cc2cc(Br)ccc2o1 | – | inconclusive: 25.1 µM [inhibitor, single point]
34 | COc1ccc(Cl)cc1N1Cc2ccccc2C1 | – | active: 25.1 µM
35 | CCCCN(C(=O)c1c(C)[nH]c(C(=O)OCC)c1C)c1ccccc1 | – | inconclusive: 15.8 µM [activator, partial curve]
36 | CCN(CC)CCNC(=O)c1ccc(CSc2nc3ccncc3n2Cc2cccc(F)c2)cc1 | inactive: -5.82% | –
37 | Cc1ccc(C(=O)Nc2ccc(S(=O)(=O)O)c3cc(S(=O)(=O)O)cc(S(=O)(=O)O)c23)cc1NC(=O)c1cccc(NC(=O)Nc2cccc(C(=O)Nc3cc(C(=O)Nc4ccc(S(=O)(=O)O)c5cc(S(=O)(=O)O)cc(S(=O)(=O)O)c45)ccc3C)c2)c1 | – | inconclusive: 20 µM [activator, single point] and inconclusive: 15.8 µM [activator, partial curve]
38 | O=C(CSc1nc(-c2ccccc2)cs1)Nc1cccc([N+](=O)[O-])c1 | – | inconclusive: 39.8 µM [inhibitor, single point]
39 | Cc1ccc(C2=CC(c3cccs3)n3nnnc3N2)cc1 (stereo not given) | – | active: 15.8 µM
40 | CCOc1ccc(OCc2cccc(C(=O)Nc3ccc(CN4CCCCC4)cc3)c2)cc1 | – | inconclusive: 25.1 µM [inhibitor, single point]
